Among the data in the supplement of paper PMC10126150 are switch fluorescence ratio values, retold here.

This series concerns ATP. Nature of the series: switch fluorescence ratio, 500 uM ATP over buffer (Cy3 cluster intensity, sum of 5 cycles each) (fold (ratio)); higher = stronger signal-on switching upon ATP binding; sequences stand for … in TCGTCGGCAGCGTCAGATGTGTATAAGAGACAGTTTTTTTTTTTTTTTTTTTTTTTTT…TC. Particulars: aptamer strand: ATP DNA aptamer (quencher-CACCTGGGGGAGTATTGCGGAGGAAGG + anchor), 100 nM annealed; ATP concentration: 500 uM; one replicate. Summed up: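 Exposure to 500 uM ATP lasted 15 min at 22 °C before imaging, and a selection-buffer image was taken beforehand, for Cy3-labelled switching-strand clusters on a modified Illumina MiSeq flow-cell annealed to 100 nM quencher-labelled ATP aptamer. Five buffer/ATP cycles were run with NaOH stripping and re-annealing between them. The fluorescence ratio per cluster is summed target-cycle over summed buffer-cycle Cy3 intensity, averaged per switch-domain sequence. Clusters outside 100-1000 RFU were excluded.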

Values marked as one replicate rest on one cluster of the flow cell; about a third of the high ones do not repeat.

On to ACGAGCTGAT, for which the switch fluorescence ratio was 1.09. Under GGAAGTCACT stands 0.994. Take CGGCCTTTGT: the switch fluorescence ratio was determined as 1.08. For TTAAGGGAC, the switch fluorescence ratio was 1.12. Under TAAGGGTCT stands 0.982; under TGTCAAAGGC, 1.03; under GCAGTGTACT, 1.12. With TGATTTAACA, the switch fluorescence ratio was determined as 1.02.

Regarding CCCCAATTCA, the switch fluorescence ratio was 1.09.

On to GGGATATAAG, for which the switch fluorescence ratio is 0.994. Under ATAAATTCG stands 0.998. Under CCTGTATTTA stands 0.99; under ACGGGGAAAT, 0.964; under AATACCGCTC, 1.34. In the case of CCAAGAAACG, the switch fluorescence ratio is 1.02. For GTAATGTGGA, the switch fluorescence ratio came to 0.989.

For AAATGAAACT, the switch fluorescence ratio is 1.04. Under AAAACGGGCA stands 0.974; under CAAGGCAACC, 1.27; under CAAATTAAGA, 0.995.

For GGGGGCGG, the switch fluorescence ratio stood at 1.07. Take GTTATTGTAC: the switch fluorescence ratio is 1.03. TACCGAAATT: the switch fluorescence ratio was determined as 0.992. Consider AGGTATATCT, for which the switch fluorescence ratio is 0.996. Under AAGTCGCTGG stands 1.01; under GTGCGTGAAC, 1.02; under TCGTGTTGTG, 0.989.

Regarding AGGCGCGTAT, the switch fluorescence ratio turned out to be 1.06.

As for TCGCACGGCG, the switch fluorescence ratio is 0.994. Under CTCAAGTAGG stands 1.02; under CGGCGGGTC, 0.982; under GACAGCACGG, 1.15.

On to TATGGACTCT, for which the switch fluorescence ratio was 0.998.

In the case of CGTTTCGTCC, the switch fluorescence ratio was 1.01. In the case of GCAAGGACGT, the switch fluorescence ratio amounted to 1.03.

As for TCGAGGAGGT, the switch fluorescence ratio was 0.976.

Turning to AAGACGGTAA, the switch fluorescence ratio amounted to 1.03.

Consider TAGACACAAC, for which the switch fluorescence ratio stood at 1.11.

Consider GCCAGAATTA, for which the switch fluorescence ratio was 1.02. Under AGTCGAACCA stands 1.02. CTGGGGCCAT: the switch fluorescence ratio came out at 1.06. Under TCGAAGCCAT stands 1.06; under GTTGTCCTGT, 0.953. For the sequence CAGAGAAAAC, the switch fluorescence ratio amounted to 0.976. Under AGGTAGGATA stands 1.04; under CGTGCGAAAA, 1.02; under ATAGGAGAAT, 1.

In the case of GGTGTTGC, the switch fluorescence ratio was found to be 1.06. Under AAGGCAAAAG stands 0.97; under AAGTGTCTAT, 0.988; under CCAATCGTCA, 1.04.

Regarding TAGGGCCTGG, the switch fluorescence ratio stood at 1.02. Take CATACACATA: the switch fluorescence ratio was determined as 1.08. Under TACCTGCTTC stands 1.04. Under GCATAAACAG stands 1.03; under ATTAATGTGC, 1.03. Under AGCAGCCAGA stands 0.98; under GCTGTGCATG, 1; under TGGAAGTTCA, 0.953. As for GGCATCAAAC, the switch fluorescence ratio was found to be 1.02.

On to AGTGAGGTTA, for which the switch fluorescence ratio amounted to 1.03. Under TGGGTTCCA stands 0.99; under TAGTCAAGTC, 1.05; under CCATTCTTAT, 0.973. Under CTTTCCTTTG stands 1.05; under TTTCTAGGCT, 1; under AAGGGCCAAC, 1. Under CCACAATTAT stands 1.27; under TTATGCGCAG, 1.08; under TCGCCCCCCC, 1.61. TTTTTACGCG: the switch fluorescence ratio worked out at 1.05.

As for GCATTTATCG, the switch fluorescence ratio was found to be 1.01.

In the case of AAGGTAGGAC, the switch fluorescence ratio is 0.992.

Regarding GTCGATAACT, the switch fluorescence ratio worked out at 1.02. Under AAATGCGCTC stands 1.04; under TTGACGTACC, 2.08; under ATACGGAGA, 1.06. As for TGCAAGCTTT, the switch fluorescence ratio was found to be 1.02. In the case of ATAAGGAACT, the switch fluorescence ratio was 1.01. Under TTTTGTACCC stands 0.959; under CAATCACT, 0.999; under GGTGTCTT, 0.975. Under AGCCTAAGA stands 0.971; under ATAGTTCTCA, 0.97.

Take CACGTCACCT: the switch fluorescence ratio is 1.68. As for GCGTTATCGT, the switch fluorescence ratio was 0.993. Under ACAACGCATG stands 1.37; under GCAAGCTGAT, 1.03.

GGGATGCAT: the switch fluorescence ratio came out at 1.01. As to GCACGGAAGA, the switch fluorescence ratio was 1.12.

Regarding AGTTCATAGC, the switch fluorescence ratio stood at 1. For the sequence AGCTGGTTAA, the switch fluorescence ratio is 0.976. For ATCAAAATAT, the switch fluorescence ratio stood at 1.13. Turning to GTTGTGTAG, the switch fluorescence ratio turned out to be 1.01. Under TTTTACAATG stands 0.984; under CTCGAATCTA, 0.979.

Consider AATCGAACGG, for which the switch fluorescence ratio came out at 1.01. Under TGTATCTTGA stands 0.953; under AACGACTGTA, 1.04. Under AAGCGCGGGG stands 1.04; under GCAGCCGGCG, 0.991. For CACCGACCAA, the switch fluorescence ratio came out at 2.32. With AGAGCGTGTT, the switch fluorescence ratio amounted to 0.975.

Take TTATTGTGGC: the switch fluorescence ratio is 1.01.

GAGGGAGAGC: the switch fluorescence ratio came to 0.979.

TACTTAGAGA: the switch fluorescence ratio worked out at 1.08. GACCTACCCG: the switch fluorescence ratio amounted to 1.28.

For the sequence TACACGGTA, the switch fluorescence ratio is 1.12.

As for CTCATACTAT, the switch fluorescence ratio was determined as 1.03. Under TATATCGTTT stands 1.02.

GAGTGGCAGG: the switch fluorescence ratio came out at 1.02. Consider CACTGCTGTT, for which the switch fluorescence ratio amounted to 1.01. Turning to TTTTTGGCGA, the switch fluorescence ratio is 0.993. For GAGGGGGCA, the switch fluorescence ratio stood at 0.989.

In the case of CCGAAAGGGC, the switch fluorescence ratio was 2.09. Under ACGGTGAAAC stands 0.969.

Regarding GTGTTATTAT, the switch fluorescence ratio worked out at 0.997. Under TCAAAGGGCT stands 0.938; under CCTGGCCCGT, 1.06; under GTGTATGG, 0.968. With TCCATCACGT, the switch fluorescence ratio amounted to 1.06.
